Consider 88 compounds from PubChem BioAssay AID1645887 (National Center for Advancing Translational Sciences (NCATS), 2021).

Molecules are shown by their SMILES. Where “and” joins values, the source holds several entries; their conditions need not be identical. Identical values can stand only once. Out of some 16,000 compounds screened, about 40 (0.2%) were called active. Not shown: some 1% with an inconclusive outcome. The call rests on the fitted dose curve; in most records, active means well fitted activation curve with a large enough effect; inconclusive means small, poorly fitted or top-dose-only effect, or another doubt; inactive means no such curve, though single readings can be large or run the other way. This is one part of the list. Residues, ends and D or L forms follow the SMILES beside them. *: point of attachment. Cbz = O=C(OCc1ccccc1)*; CH2F = FC*
On the % scale 0 is the no-effect control and ±100 the full control effect.

UniProt Q8WZA2, sequence (Q8WZA2 whole entry, looked up): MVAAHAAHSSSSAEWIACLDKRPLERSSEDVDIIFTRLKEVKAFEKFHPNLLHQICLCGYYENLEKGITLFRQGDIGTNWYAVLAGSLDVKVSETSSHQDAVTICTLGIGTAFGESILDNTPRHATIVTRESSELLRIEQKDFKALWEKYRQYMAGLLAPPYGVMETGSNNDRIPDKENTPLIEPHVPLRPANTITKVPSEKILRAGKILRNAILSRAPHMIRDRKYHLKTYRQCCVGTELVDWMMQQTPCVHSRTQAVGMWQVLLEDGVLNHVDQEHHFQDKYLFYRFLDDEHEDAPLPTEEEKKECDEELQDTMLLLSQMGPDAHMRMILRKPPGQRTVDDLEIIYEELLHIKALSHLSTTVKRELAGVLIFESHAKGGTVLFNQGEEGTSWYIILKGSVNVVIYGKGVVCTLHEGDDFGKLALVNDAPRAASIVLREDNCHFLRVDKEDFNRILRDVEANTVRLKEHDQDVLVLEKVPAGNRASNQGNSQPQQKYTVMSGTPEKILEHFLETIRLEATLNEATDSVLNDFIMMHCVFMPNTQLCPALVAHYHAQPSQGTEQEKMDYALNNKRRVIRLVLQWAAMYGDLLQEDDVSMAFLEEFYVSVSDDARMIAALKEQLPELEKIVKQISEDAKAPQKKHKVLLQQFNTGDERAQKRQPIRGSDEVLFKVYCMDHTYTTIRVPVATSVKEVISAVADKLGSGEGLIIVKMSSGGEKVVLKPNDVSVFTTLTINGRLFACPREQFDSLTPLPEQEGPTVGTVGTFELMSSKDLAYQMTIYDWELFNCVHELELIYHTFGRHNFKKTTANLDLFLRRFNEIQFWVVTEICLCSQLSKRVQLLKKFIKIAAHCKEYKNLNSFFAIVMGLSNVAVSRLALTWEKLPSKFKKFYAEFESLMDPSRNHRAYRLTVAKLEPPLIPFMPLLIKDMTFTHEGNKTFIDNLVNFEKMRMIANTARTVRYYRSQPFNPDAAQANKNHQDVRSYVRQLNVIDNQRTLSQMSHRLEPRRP

The target in this experiment is Rap guanine nucleotide exchange factor 4 (Homo sapiens) (UniProt Q8WZA2). Nature of the experiment: Validation qHTS for agonist of cAMP-regulated guanine nucleotide exchange factor 4 (EPAC2).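 Further: exchange makes BODIPY-GDP fluorescence drop when released from Rap1B; series mostly up to about 150 µM.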 The conditions noted are these: EPAC2 Rap1B BODIPY-GDP exchange, fluorescence; activation: stronger effect = higher value. In short, it runs like this:
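Fluorescent exchange assay: 100 nM EPAC2 with 250 nM RAP1B-BODIPY-GDP and 50 uM GDP; compound added, 5 min at room temperature, then read (ex 480/em 540 nm) every 5 min for 30 min. Normalized to 6.5 mM cAMP agonist control.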
(In general: Quantitative high-throughput screening tests each substance at several concentrations.)
Regarding `COCCn1c(=O)c(-c2cccc(C#N)c2)nc2cnc(N3CCOCC3)nc21`, the activation is inactive: 8.08%.
The value for `OC[C@H]1O[C@@H](n2cnc3c2NC=NC[C@H]3O)C[C@@H]1O` was inactive: -14.4%.
As to `COc1cc(OC)c(C(C)=O)c(O)c1C`, the activation was inactive: -20.6%.
With `N#CCCn1c(=O)c(-c2ccc(Cl)cc2)nc2cnc(Oc3cccc(Cl)c3)nc21`, the activation is inactive: -3.14%.
On to `CC1(C)Oc2ccc(C#N)cc2[C@@H](N2CCCC2=O)[C@@H]1O`, for which the activation was inactive: -15.4% and inactive: -7.61%.
With `Cc1cc(O)c(C=O)c2c1C(=O)Oc1c(C)c(O)c3c(c1O2)C(O)OC3=O` (stereo not drawn), the activation was inactive: -3%.
As for `CN1C(C)(C)CCCC1(C)C`, the activation was inactive: -13.7%.
The result for `O=c1[nH]c(=O)n(C2CC(O)C(CO)O2)cc1C(F)(F)F` (stereo not drawn) reads inactive: -12.7%; that for `CCCCc1c(C)[nH]c2c(OC)cccc2c1=S`, inactive: -30.9%.
Turning to `COc1ccc(CNc2ccnc(-c3ccc(C(=O)N(C)C)cc3)n2)c(OC)c1`, the activation is inactive: -11%.
As to `N[C@@H](CCC(=O)N[C@H](CSN=O)C(=O)NCC(=O)O)C(=O)O`, the activation was inactive: -20.5%.
As to `C[C@@H]1C[C@H]2[C@@H]3CCC4=CC(=O)C=C[C@]4(C)[C@@]3(F)[C@@H](O)C[C@]2(C)[C@@]1(O)C(=O)COC(=O)c1cccc(S(=O)(=O)O)c1`, the activation was inactive: -0.79%.
Take `CC1C(=O)OC2C(O)C34C5CC(C(C)(C)C)C36C(OC(=O)C6O)OC4(C(=O)O5)C12O` (stereo not drawn): the activation was inactive: -6.95%.
The result for `C[N+](C)(C)CCCCCC[N+](C)(C)C` reads inactive: -5.69% [middle of 4 runs]; that for `CC[N+](C)(C)Cc1ccccc1Br`, inactive: 6.25%; that for `CCCCCCCCc1ccc(-c2ccc(C(=O)O)cc2)cc1`, inactive: -26%.
The result for `COc1ccc(C(=O)NCC2Cc3cc(F)cc(-c4cncnc4)c3O2)cc1` (stereo not drawn) reads inactive: -9.67%; that for `Cc1noc(C)c1-c1nc(N(C)C)c2ccccc2n1`, inactive: -15.6%; that for `OCc1ccccc1O[C@H]1OC(CO)C(O)C(O)C1O` (stereo partly drawn), inactive: -3.38%.
For the compound `Cc1cc(C)c(C(=O)NCc2nc(-c3cccc(NC(=O)C4CCCN(C)C4)c3)oc2C)[nH]1` (stereo not drawn), the activation was inactive: -4.75%.
Take `CC(C)c1nc(C(=O)N2CCOc3ccc(CN4CCN(c5ccccn5)CC4)cc3C2)cs1`: the activation was inactive: -14.9%.
Consider `CCOC(=O)C[C@H]1c2ccc(C(F)(F)F)cc2S(=O)(=O)N1Cc1ccccc1`, for which the activation was inactive: -13.1%.
As to `COc1ccccc1CNc1cc(-c2c(C)noc2C)ncn1`, the activation is inactive: 0.851%.
As for `O=c1ccc2ccc(O)cc2o1`, the activation was inactive: 6.84%.
As for `COc1cccc(Cn2c(=O)c(-c3cccs3)nc3cnc(N4CCNCC4)nc32)c1`, the activation is inactive: 9.89%.
`N#Cc1cccc(NC(=O)N2CCC3(CC2)CCN(C(=O)c2cccc(F)c2)CC3)c1`: the activation was inactive: -11.6%.
For the compound `COc1ccc([C@@H]2CC(=O)c3c(O)cc(O[C@@H]4O[C@H](CO[C@@H]5O[C@@H](C)[C@H](O)[C@@H](O)[C@H]5O)[C@@H](O)[C@H](O)[C@H]4O)cc3O2)cc1O`, the activation was inactive: -25.8%.
With `O=c1c(-c2ccccc2)nc2cnc(Nc3ccccc3)nc2n1Cc1cccs1`, the activation was inactive: -3.83%.
With `N#CCCn1c(=O)cnc2cnc(Nc3ccccc3)nc21`, the activation is inactive: -27.3%.
With `Cc1nc(C(=O)N(Cc2cc3ccc(F)cc3nc2N2CCC(O)CC2)CC2CCCO2)cs1` (stereo not drawn), the activation is inactive: -5.39%.
As for `CNc1ccc(/C=C/c2ccccc2)cc1`, the activation is inactive: -9.94%.
The result for `COc1c2ccoc2c(OC)c2oc(=O)ccc12` reads inactive: -27.4%.
As to `COc1cc(S(C)=O)ccc1-c1nc2ncccc2[nH]1` (stereo not drawn), the activation is inactive: -22.9%.
For `CCC1Nc2cc(Cl)c(S(N)(=O)=O)cc2S(=O)(=O)N1` (stereo not drawn), the activation was inactive: -18.9%.
Turning to `O=C(NCCO)c1cn(C2CCN(Cc3c(F)cccc3Cl)CC2)nn1`, the activation is inactive: -16.3%.
The result for `CN1CCN(c2nc(-c3cccnc3)nc3ccccc23)CC1` reads inactive: -3.67%; that for `Cn1cccc1C(=O)N1CCC2(CC1)CN(C(c1ccccc1)c1ccccc1)C2`, inactive: 15.1%; that for `CC(N)=NCCCC[C@H](N)C(=O)O`, inactive: -8.52%.
The result for `C/C(=C\COc1cc(=O)[nH]c2ccccc12)CCC(O)C(C)(C)O` (stereo not drawn) reads inactive: 6.22% and inactive: -2.51%.
In the case of `CCN(Cc1ccncc1)Cc1ccc2c(c1)CN(C(=O)c1ccc(C)cc1)CCO2`, the activation was inactive: 0.871%.
As for `O=c1c(-c2cccc(F)c2)nc2cncnc2n1C1CC1`, the activation was inactive: 0.67%.
For the compound `COc1cc2c(cc1O)CCC1C2CC[C@@]2(C)C1CC[C@@H]2O` (stereo partly drawn), the activation is inactive: -11.6%.
As for `O=C(O)c1cc(N=Nc2ccc(O)c(C(=O)O)c2)ccc1O`, the activation was inactive: -3.97%.
Regarding `COc1cc(-c2noc(C)c2-c2ccc3[nH]ccc3c2)cc(OC)c1OC`, the activation was inactive: -26.3%.
On to `COc1ccc2c(c1OC)C(Cc1ccccc1)N1CCc3cc4c(cc3C1C2)OCO4` (stereo not drawn), for which the activation is inactive: 13.1%.
With `COc1cc2cc(Oc3ccc4ccc(=O)oc4c3)c(=O)oc2cc1O`, the activation is inactive: 29.1%.
Consider `CC(C)(C(=O)O)c1ccc(C(O)CCCN2CCC(C(O)(c3ccccc3)c3ccccc3)CC2)cc1` (stereo not drawn), for which the activation was inactive: 0.799% and inactive: -3.95% and inactive: -4.53%.
Take `CN(C)c1ncc2nc(-c3ccccc3)c(=O)n(C3CC3)c2n1`: the activation was inactive: 5.49%.
For the compound `CN1CCN(c2ncnc3ccc(-c4ccoc4)cc23)CC1`, the activation was inactive: -14.3%.
Turning to `COc1ccc(-n2c(=O)c(C)nc3cnc(Oc4ccccc4)nc32)cc1`, the activation was inactive: -3.08%.
As for `NS(=O)(=O)c1cc(C(=O)O)cc(N2CCCC2)c1Oc1ccccc1`, the activation was inactive: -16.4%.
For the compound `Cc1oc(-c2ccccc2NC(=O)c2ccsc2)nc1CN(C)CC1CC=CCC1` (stereo not drawn), the activation is inactive: -9.38%.
Take `CN(C)CCCN1c2ccccc2Sc2ccccc21`: the activation is inactive: 8.87% and inactive: -16.3% and inactive: -0.866%.
For `CCCCS(=N)(=O)CC[C@H](N)C(=O)O` (stereo partly drawn), the activation was inactive: -20.9%.
With `NC(Cc1ccc(Cl)cc1)C(=O)O` (stereo not drawn), the activation is inactive: 9.73% and inactive: -14.7%.
The result for `COc1ccc(CNC(=O)[C@@H]2CC=C[C@@H]3CCN(Cc4ccc(Cl)c(Cl)c4)C(=O)[C@@H]32)cc1` reads inactive: -20.5%.
Consider `CS(=O)(=O)Nc1cccc(-c2nc(Nc3ccncc3)c3ccccc3n2)c1`, for which the activation is inactive: 9.07%.
Consider `c1cncc(CNc2nc(-c3ccoc3)nc3ccccc23)c1`, for which the activation was inactive: -14.6%.
In the case of `O=C(OCCO)c1ccccc1O`, the activation was inactive: 0.748%.
For the compound `CN(C)C(=O)c1ccc(-c2nc(-n3ccnc3)c3ccccc3n2)cc1`, the activation is inactive: 3.41%.
`Cn1cc(-c2nc3cnc(N4CCNCC4)nc3n(-c3ccccc3)c2=O)c2ccccc21`: the activation was inactive: 0.0217%.
As for `CN1CCN(c2ncc3nc(-c4ccc(Cl)cc4)c(=O)n(-c4ccccc4)c3n2)CC1`, the activation was inactive: -8.91%.
On to `COc1ccc2c(=O)ccoc2c1`, for which the activation is inactive: -2.89%.
The result for `Cc1nnc(SCC2=C(C(=O)O)N3C(=O)C(NC(=O)Cn4cnnn4)[C@@H]3SC2)s1` (stereo partly drawn) reads inactive: 3.96%; that for `Cc1nc2cnc(N3CCNCC3)nc2n(C2CC2)c1=O`, inactive: -14.5%.
With `O=C(O)COc1ccc(OCCNC[C@H](O)COc2ccccc2)cc1`, the activation is inactive: -10.8%.
Consider `C=CC(C1=CC(=O)C=CC1=O)c1ccccc1` (stereo not drawn), for which the activation was inactive: 4.15%.
In the case of `CN1CCC(=O)N([C@H](CSc2ccccc2)c2ccccc2)CC1`, the activation was inactive: -20.8%.
Turning to `O=C/C=C/c1ccc(O)cc1`, the activation is inactive: 0.51%.
As to `Cc1cnc(CNc2ncncc2-c2ccoc2)cn1`, the activation was inactive: 8.26%.
In the case of `CC(=O)Nc1ccccc1`, the activation was inactive: -10% and inactive: 6.06%.
Consider `COc1ccccc1-c1nccc(N2CCN(C)CC2)n1`, for which the activation was inactive: -7.07%.
For the compound `CCOC(=O)C[C@H]1c2ccc(C(F)(F)F)cc2S(=O)(=O)N1C(C)C`, the activation was inactive: -28.9%.
For `CCCN1C[C@H](CSC)C[C@@H]2c3cccc4[nH]cc(c34)C[C@H]21`, the activation is inactive: 0.155% and inactive: 15% and inactive: -1.55%.
`CO[C@H]1[C@H](NC(=O)C(C)C)c2ccccc2C12CCN(Cc1cnc(N(C)C)s1)CC2`: the activation was inactive: 3.02%.
The result for `CCCCCCCCCCCCCCCCN` reads inactive: -3.45%; that for `COC(=O)C[C@H](NC(=O)[C@H](C)NC(=O)[C@@H](NC(=O)OCc1ccccc1)C(C)C)C(=O)CF` (Cbz-Val-Ala-Asp(OMe)-CH2F), inactive: -9.25%; that for `C=C[C@](C)(O)CCC1C(=C)CC(O)C2C(C)(C)CCCC12C` (stereo partly drawn), inactive: -14.7%.
For `O=C1CCC(O)CCN1CCSc1ccccc1` (stereo not drawn), the activation is inactive: -19.1%.
Regarding `CC(C)(C)C(=O)Oc1ccc(S(=O)(=O)Nc2ccccc2C(=O)NCC(=O)O)cc1`, the activation was inactive: -6.15%.
As to `CC(C)Cc1nc2cc(NS(=O)(=O)N(C)C)cc(C(=O)N3CC4(C)CC3CC(C)(C)C4)c2n1C` (stereo not drawn), the activation was inactive: -8.33%.
With `CSc1ccc2c(c1)C(N1CCN(C)CC1)Cc1ccccc1S2` (stereo not drawn), the activation is inactive: 2.16% and inactive: 3.02% and inactive: -16.7%.
For the compound `C[C@H]1COc2c(C3(N)CC3)c(F)cc3c(=O)c(C(=O)O)cn1c23`, the activation was inactive: 2.26%.
On to `CC(C(=O)O)c1ccc2c(c1)Cc1cccnc1O2` (stereo not drawn), for which the activation is inactive: -18.8%.
The result for `COc1ccccc1-c1ccnc(-n2ncc(C(=O)NCC3(N4CCOCC4)CCCC3)c2C)n1` reads inactive: -4.2%.
The value for `O=c1cnc2cnc(N3CCNCC3)nc2n1Cc1cccs1` was inactive: -7.52%; that for `COCCn1c(=O)c(-c2cccc(C#N)c2)nc2cnc(Oc3ccccc3)nc21` was inactive: 8.13%.
On to `CCCCNC(=O)c1sc2ncnc(NCC3CCCO3)c2c1C` (stereo not drawn), for which the activation is inactive: -4.18%.
